In this experiment the target is recombinant human TPH2 (Swiss-Prot: Q8IWU9) (Homo sapiens (Human), UniProt Q8IWU9). The experiment is described as follows: In vitro enzyme activity assay, fluorescence-based, TPH2 inhibition. The conditions noted are these: read-out: IC50 TPH2 (μM) mean; recombinant human TPH2, 40 μM tryptophan, pH 7.0, mean of sample triplicates.
Sequence of UniProt Q8IWU9 (Q8IWU9 whole entry): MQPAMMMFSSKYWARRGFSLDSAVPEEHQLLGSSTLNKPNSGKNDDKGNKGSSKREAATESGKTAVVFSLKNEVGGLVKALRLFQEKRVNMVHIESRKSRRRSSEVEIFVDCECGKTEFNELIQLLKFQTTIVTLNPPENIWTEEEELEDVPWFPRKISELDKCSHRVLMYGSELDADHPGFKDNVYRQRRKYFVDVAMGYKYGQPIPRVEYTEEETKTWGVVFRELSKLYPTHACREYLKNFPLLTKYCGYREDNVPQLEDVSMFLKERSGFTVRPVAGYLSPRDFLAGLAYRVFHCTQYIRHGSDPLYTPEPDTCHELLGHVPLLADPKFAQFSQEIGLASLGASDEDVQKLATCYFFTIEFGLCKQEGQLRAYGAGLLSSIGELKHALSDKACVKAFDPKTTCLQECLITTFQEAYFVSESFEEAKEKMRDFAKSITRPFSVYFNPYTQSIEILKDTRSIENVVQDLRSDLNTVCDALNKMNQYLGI
One may read the IC50 as the concentration that gives 50% inhibition. As to `CCn1c(=O)[nH]c(=O)c2c1nc(Cc1cn3ccccc3n1)n2Cc1ccccc1` [Ex. 1, 8-((H-imidazo[1,2-a]pyridin-2-yl)methyl)-7-benzyl-3-ethyl-1H-purine-2,6(3H,7H)-dione], the concentration for half-maximal inhibition (IC50) was 0.043 µM.
For `CCn1c(=O)[nH]c(=O)c2c1nc(Cc1cn3c(n1)CCCC3)n2Cc1ccccc1` [Ex. 2, 7-benzyl-3-ethyl-8-((5,6,7,8-tetrahydroimidazo[1,2-a]pyridin-2-yl)methyl)-3,7-dihydro-1H-purine-2,6-dione] the value was 0.04 µM.
As to `CCn1c(=O)[nH]c(=O)c2c1nc(Cc1cn3c(n1)CCCC3)n2Cc1ccc(-c2ccccc2)cc1` [Ex. 3, 7-([1,1′-biphenyl]-4-ylmethyl)-3-ethyl-8-((5,6,7,8-tetrahydroimidazo[1,2-a]pyridin-2-yl)methyl)-3,7-dihydro-1H-purine-2,6-dione], the IC50 is 0.039 µM.
The same measure for `CCn1c(=O)[nH]c(=O)c2c1nc(Cc1cn3ccccc3n1)n2Cc1ccc(C(=O)OC)cc1` [Ex. 4, Methyl 4-((8-((H-imidazo[1,2-a]pyridin-2-yl)methyl)-3-ethyl-1,2,3,6-tetrahydro-2,6-dioxopurin-7-yl)methyl)benzoate]: 0.02 µM; for `CCn1c(=O)[nH]c(=O)c2c1nc(Cc1cn3ccccc3n1)n2Cc1ccc2c(c1)OCO2` [Ex. 5, 8-((H-imidazo[1,2-a]pyridin-2-yl)methyl)-7-((benzo[d][1,3]dioxol-5-yl)methyl)-3-ethyl-1H-purine-2,6(3H,7H)-dione]: 0.03 µM.
`CCn1c(=O)[nH]c(=O)c2c1nc(Cc1cn3ccccc3n1)n2Cc1ccc(C(=O)O)cc1` [Ex. 6, 4-((3-ethyl-8-(imidazo[1,2-a]pyridin-2-ylmethyl)-2,6-dioxo-1,2,3,6-tetrahydro-7H-purin-7-yl)methyl)benzoic acid]: the IC50 was 0.272 µM.
The same measure for `CCn1c(=O)[nH]c(=O)c2c1nc(Cc1cn3ccccc3n1)n2Cc1ccc(-c2ccn(C)n2)cc1` [Ex. 7, 3-ethyl-8-(imidazo[1,2-a]pyridin-2-ylmethyl)-7-(4-(1-methyl-1H-pyrazol-3-yl)benzyl)-3,7-dihydro-1H-purine-2,6-dione]: 0.017 µM.
With `CCn1c(=O)[nH]c(=O)c2c1nc(Cc1cn3ccccc3n1)n2Cc1ccc(-c2noc(C)n2)cc1` [Ex. 8, 7-(4-(5-methyl-1,2,4-oxadiazol-3-yl)benzyl)-8-((H-imidazo[1,2-a]pyridin-2-yl)methyl)-3-ethyl-1H-purine-2,6(3H,7H)-dione], the IC50 came out at 0.018 µM.
For `CCn1c(=O)[nH]c(=O)c2c1nc(Cc1cn3ccccc3n1)n2Cc1ccc(-c2ncccn2)cc1` [Ex. 9, 3-ethyl-8-(imidazo[1,2-a]pyridin-2-ylmethyl)-7-(4-(pyrimidin-2-yl)benzyl)-3,7-dihydro-1H-purine-2,6-dione] the value was 0.02 µM; for `CCn1c(=O)[nH]c(=O)c2c1nc(Cc1cn3ccccc3n1)n2Cc1ccc(-c2nccs2)cc1` [Ex. 10, 3-ethyl-8-(imidazo[1,2-a]pyridin-2-ylmethyl)-7-(4-(thiazol-2-yl)benzyl)-3,7-dihydro-1H-purine-2,6-dione], 0.017 µM.
In the case of `CCn1c(=O)[nH]c(=O)c2c1nc(Cc1cn3ccccc3n1)n2Cc1ccc(-c2nc(C)no2)cc1` [Ex. 12, 3-ethyl-8-(imidazo[1,2-a]pyridin-2-ylmethyl)-7-(4-(3-methyl-1,2,4-oxadiazol-5-yl)benzyl)-3,7-dihydro-1H-purine-2,6-dione], the IC50 was found to be 0.02 µM.
In the case of `CCn1c(=O)[nH]c(=O)c2c1nc(Cc1cn3nc(C)sc3n1)n2Cc1ccccc1` [Ex. 13, 7-benzyl-3-ethyl-8-((2-methylimidazo[2,1-b][1,3,4]thiadiazol-6-yl)methyl)-3,7-dihydro-1H-purine-2,6-dione], the 50% inhibitory concentration (IC50) turned out to be 0.018 µM.
Take `CCn1c(=O)[nH]c(=O)c2c1nc(Cc1cn3ccsc3n1)n2Cc1ccccc1` [Ex. 14, 7-benzyl-3-ethyl-8-(imidazo[2,1-b]thiazol-6-ylmethyl)-3,7-dihydro-1H-purine-2,6-dione]: the IC50 stood at 0.011 µM.
Regarding `CCn1c(=O)[nH]c(=O)c2c1nc(Cc1cn3ccsc3n1)n2Cc1ccc(-c2ccn(C)n2)cc1` [Ex. 15, 7-(4-(1-methyl-1H-pyrazol-3-yl)benzyl)-3-ethyl-8-((imidazo[2,1-b]thiazol-6-yl)methyl)-1H-purine-2,6(3H,7H)-dione], the half-maximal inhibitory concentration (IC50) was determined as 0.014 µM.
The same measure for `CCn1c(=O)[nH]c(=O)c2c1nc(Cc1cn3cc(C)sc3n1)n2Cc1ccccc1` [Ex. 16, 7-benzyl-3-ethyl-8-((2-methylimidazo[2,1-b]thiazol-6-yl)methyl)-1H-purine-2,6(3H,7H)-dione]: 0.016 µM.
On to `CCn1c(=O)[nH]c(=O)c2c1nc(Cc1cn3cc(C)sc3n1)n2Cc1ccc(-c2ccn(C)n2)cc1` [Ex. 17, 3-ethyl-7-(4-(1-methyl-1H-pyrazol-3-yl)benzyl)-8-((2-methylimidazo[2,1-b]thiazol-6-yl)methyl)-3,7-dihydro-1H-purine-2,6-dione], for which the IC50 came to 0.021 µM.
On to `CCn1c(=O)[nH]c(=O)c2c1nc(Cc1cn3c(n1)CCCC3)n2Cc1ccc(-c2ccn(C)n2)cc1` [Ex. 18, 7-(4-(1-methyl-1H-pyrazol-3-yl)benzyl)-3-ethyl-8-((5,6,7,8-tetrahydroimidazo[1,2-a]pyridin-2-yl)methyl)-1H-purine-2,6(3H,7H)-dione], for which the IC50 is 0.03 µM.
For the compound `CCn1c(=O)[nH]c(=O)c2c1nc(Cc1cn3ccccc3n1)n2Cc1ccc(CC(=O)OC)cc1` [Ex. 19, methyl 2-(4-((3-ethyl-8-(imidazo[1,2-a]pyridin-2-ylmethyl)-2,6-dioxo-1,2,3,6-tetrahydro-7H-purin-7-yl)methyl)phenyl)acetate], the IC50 was determined as 0.038 µM.
For `CCn1c(=O)[nH]c(=O)c2c1nc(Cc1cn3cc(Cl)sc3n1)n2Cc1ccc(-c2ccn(C)n2)cc1` [Ex. 20, 8-((2-chloroimidazo[2,1-b]thiazol-6-yl)methyl)-3-ethyl-7-(4-(1-methyl-1H-pyrazol-3-yl)benzyl)-3,7-dihydro-1H-purine-2,6-dione] the value was 0.024 µM; for `CCn1c(=O)[nH]c(=O)c2c1nc(Cc1cn3cc(Cl)sc3n1)n2Cc1ccccc1` [Ex. 21, 7-benzyl-8-((2-chloroimidazo[2,1-b]thiazol-6-yl)methyl)-3-ethyl-3,7-dihydro-1H-purine-2,6-dione], 0.015 µM.
`O=c1[nH]c(=O)n(C2CC2)c2nc(Cc3cn4ccccc4n3)n(Cc3ccccc3)c12` [Ex. 22, 7-benzyl-3-cyclopropyl-8-(imidazo[1,2-a]pyridin-2-ylmethyl)-3,7-dihydro-1H-purine-2,6-dione]: the concentration for half-maximal inhibition (IC50) turned out to be 0.061 µM.
In the case of `CCn1c(=O)[nH]c(=O)c2c1nc(Cc1cn3ccccc3n1)n2Cc1ccc(CCO)cc1` [Ex. 23, 3-ethyl-7-(4-(2-hydroxyethyl)benzyl)-8-(imidazo[1,2-a]pyridin-2-ylmethyl)-3,7-dihydro-1H-purine-2,6-dione], the IC50 was 0.071 µM.
For `CCn1c(=O)[nH]c(=O)c2c1nc(Cc1cn3ccccc3n1)n2Cc1ccc(CC(=O)O)cc1` [Ex. 24, 2-(4-((3-ethyl-8-(imidazo[1,2-a]pyridin-2-ylmethyl)-2,6-dioxo-1,2,3,6-tetrahydro-7H-purin-7-yl)methyl)phenyl)acetic acid] the value was 3.11 µM; for `CCn1c(=O)[nH]c(=O)c2c1nc(Cc1cn3cc(C)sc3n1)n2Cc1ccc(F)cc1` [Ex. 26, 3-ethyl-7-(4-fluorobenzyl)-8-((2-methylimidazo[2,1-b]thiazol-6-yl)methyl)-3,7-dihydro-1H-purine-2,6-dione], 0.039 µM; for `CCn1c(=O)[nH]c(=O)c2c1nc(Cc1cn3cc(C)sc3n1)n2Cc1ccc(OC)cc1` [Ex. 27, 3-ethyl-7-(4-methoxybenzyl)-8-((2-methylimidazo[2,1-b]thiazol-6-yl)methyl)-3,7-dihydro-1H-purine-2,6-dione], 0.025 µM.
For `CCn1c(=O)[nH]c(=O)c2c1nc(Cc1cn3cc(Cl)sc3n1)n2Cc1ccc(NC(C)=O)cc1` [Ex. 28, N-(4-((8-((2-chloroimidazo[2,1-b]thiazol-6-yl)methyl)-3-ethyl-1,2,3,6-tetrahydro-2,6-dioxopurin-7-yl)methyl)phenyl)acetamide], the concentration for half-maximal inhibition (IC50) was found to be 0.017 µM.
With `CCn1c(=O)[nH]c(=O)c2c1nc(Cc1cn3cc(Cl)sc3n1)n2Cc1ccc(-n2cncn2)cc1` [Ex. 29, 7-(4-(1H-1,2,4-triazol-1-yl)benzyl)-8-((2-chloroimidazo[2,1-b]thiazol-6-yl)methyl)-3-ethyl-3,7-dihydro-1H-purine-2,6-dione], the half-inhibitory concentration (IC50) is 0.023 µM.
For `CCn1c(=O)[nH]c(=O)c2c1nc(Cc1cn3cc(C)sc3n1)n2Cc1ccc(NC(C)=O)cc1` [Ex. 30, N-(4-((3-ethyl-8-((2-methylimidazo[2,1-b]thiazol-6-yl)methyl)-2,6-dioxo-1,2,3,6-tetrahydro-7H-purin-7-yl)methyl)phenyl)acetamide] the value was 0.016 µM; for `CCn1c(=O)[nH]c(=O)c2c1nc(Cc1cn3c(n1)CCCC3)n2Cc1ccc(-n2cncn2)cc1` [Ex. 31, 7-(4-(1H-1,2,4-triazol-1-yl)benzyl)-3-ethyl-8-((5,6,7,8-tetrahydroimidazo[1,2-a]pyridin-2-yl)methyl)-3,7-dihydro-1H-purine-2,6-dione], 0.031 µM.
As for `CCn1c(=O)[nH]c(=O)c2c1nc(Cc1cn3cc(C)sc3n1)n2Cc1ccc(N2CCCC2=O)cc1` [Ex. 32, 3-ethyl-8-((2-methylimidazo[2,1-b]thiazol-6-yl)methyl)-7-(4-(2-oxopyrrolidin-1-yl)benzyl)-3,7-dihydro-1H-purine-2,6-dione], the IC50 is 0.017 µM.
For `CCn1c(=O)[nH]c(=O)c2c1nc(Cc1cn3c(n1)CCCC3)n2Cc1ccc(-n2ccnc2)cc1` [Ex. 33, 7-(4-(1H-imidazol-1-yl)benzyl)-3-ethyl-8-((5,6,7,8-tetrahydroimidazo[1,2-a]pyridin-2-yl)methyl)-3,7-dihydro-1H-purine-2,6-dione] the value was 0.029 µM; for `CCn1c(=O)[nH]c(=O)c2c1nc(Cc1cn3cc(Cl)sc3n1)n2Cc1ccc(N2CC(F)(F)C2)cc1` [Ex. 34, 8-((2-chloroimidazo[2,1-b]thiazol-6-yl)methyl)-7-(4-(3,3-difluoroazetidin-1-yl)benzyl)-3-ethyl-3,7-dihydro-1H-purine-2,6-dione], 0.096 µM.

The values are drawn from patent US10683309B2, “Xanthine derivatives, their use as a medicament, and pharmaceutical preparations comprising the same” (MAX-DELBRÜCK-CENTRUM FÜR MOLEKULARE MEDIZIN, priority 2016, dated 2020).
